Measurements: the supplement of paper PMC3334620
In all, about 33,000 sequences were measured (“E-score (-0.5 to 0.5)”: median about -0.016, highest 2% from about 0.31 on). The list shows a part of the results.

target: Cst6 (UniProt P40535); assay: PBM E-score (8-mer binding enrichment) (E-score (-0.5 to 0.5)); higher = stronger / more preferred TF binding; most listed sequences are background and not binding sites; conditions: protein concentration: 200 nM; construct: GST-DNA-binding domain
Summary of the method: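 Yeast transcription factors carrying a GST tag, as full-length proteins or DNA-binding domains, were produced by PURExpress in vitro transcription/translation. About 100-200 nM protein was applied to universal all-10-mer Agilent arrays, double-stranded by primer extension on fresh or once-stripped slides. Bound protein was detected with fluorescent anti-GST, and scans were normalised with masliner. The Universal PBM Analysis Suite gave each ungapped eight-base word, pooled with its reverse complement, an E-score, a modified Wilcoxon-Mann-Whitney statistic.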

Sequence	PBM E-score
GCACTCGA	-0.254
CGAATAGA	-0.0237
CCTTGGCG	-0.241
ACTTATTA	0.151
ACCAGTTC	-0.195
CATAAGCG	-0.032
CTAGTGGA	-0.293
AATGCTAC	0.0664
CGCATTCA	0.173
GTCTCTTA	-0.00905
AAGCAACG	0.0661
GAACCGCA	0.113
AACCTAGA	-0.0807
ATGACTGA	0.225
ATTCGTCC	0.183
ATATACGA	0.0274
CGCAGCGC	0.091
ATAGCGAC	-0.13
ACATGTCT	0.0633
AAAGTGAG	0.146
AGAGGGCA	-0.155
GCGCCCAC	-0.0564
ACGAAACT	0.0946
GCTGATCA	0.0157
TATTGAAA	0.205

Sequence	PBM E-score
ATTCTTGA	0.177
ATTGCCCG	-0.142
AGCGCTGA	0.1
CATGGCAG	-0.0579
ATCAACCA	0.0394
CCGAGCCG	0.067
CCGGTTAC	0.0405
ATGATCAA	0.249
GGTCCTAC	-0.285
ATTTAATG	0.276
ATGTAGCC	-0.142
ACATTGGA	0.0753
ACGAAGCT	-0.0999
AGAGCCGC	0.264
CCGCAACA	0.113
CGCATCAG	0.00233
CCGTTCTA	0.0539
CGCGCCAA	0.0906
TGAAGGAA	-0.102
ACGGGTCG	0.0925
ATATCACC	0.297
CCTATGCC	-0.17
CACGGCCA	-0.114
TGCGGTAA	0.258
GGAGGGGA	-0.125

Sequence	PBM E-score
GCCAACAA	-0.0984
CCAGCAAG	-0.174
ACCGGTCC	-0.444
AGCAGACC	-0.165
AAGTCGTG	-0.0611
GACTAACA	0.109
CCTCTGTA	-0.122
GAGGTAGC	-0.346
ACAAAACG	0.225
AATAGTGT	0.275
CGGTCACA	0.133
AACCTAGG	-0.0852
GCCGGGAA	-0.279
AAACGACG	0.0881
CAGCATCC	-0.179
GATCCTGA	0.0815
CCGAGGGC	-0.26
TACCCCCA	-0.308
AGCCTTAC	-0.17
CGTGCTGA	-0.0207
CAAGATCC	-0.041
GAGAACTA	0.0835
CACCCAAG	-0.145
TCATAGCA	0.255
CCGACGAG	-0.15

Sequence	PBM E-score
CGGGGCAG	-0.0986
CTTGAATC	-0.0222
CTGGAGGA	-0.371
CACACTGA	0.0518
ATATAGGG	-0.0275
GTCGCCCA	-0.192
GTGATGTA	0.465
GGGAGACC	-0.494
AACCCGCC	-0.135
CTCACGCC	0.0261
GTACAGAA	-0.0544
GGTTAAAA	0.0477
CTACTACC	-0.109
TGCCTTAA	-0.0513
ACACGTAA	0.366
CCTAAACA	-0.07
ATATCCAA	0.203
CCGAGCGC	-0.115
AATTGTTC	0.294
TAGTCTAA	-0.17
TTCTCCAA	-0.0647
GCAAGGCC	-0.112
CGCTAACG	0.251
AATCGATC	-0.0562
GCAAGTAC	-0.0407

Sequence	PBM E-score
GAAAGGGC	-0.0242
AAGACAAG	0.0892
CTTGTCAC	0.0224
CGTGGGTA	-0.25
CTGAGTCC	-0.271
AGATGTGG	0.0193
AGCATGAC	0.279
CAGTACAG	-0.148
AATTAGTC	0.223
AATCCCCT	-0.354
GCCCAACA	-0.301
CAGGCTTC	-0.0671
CAGTGCGA	-0.0203
CCGAAGCC	-0.175
AGCTGATG	0.104
CCGGACTC	-0.171
CAGTAGGG	-0.22
ATAGTCGG	-0.21
GGCGCGGA	-0.0925
ACGTCCCC	-0.225
AGTGTGAC	0.253
ATCCTAGA	-0.134
AGGGTACG	-0.0337
ACAGTAGA	0.202
GCAGAGAA	0.0465

Sequence	PBM E-score
GCCGGTCC	-0.342
CGGCTCAC	-0.0029
CCGGGGAA	-0.00802
CGCGAGCC	-0.0599
AATGGAAA	0.168
AAGGGCAT	-0.00446
AGTCCGAT	-0.121
AATCACAA	0.0779
GTCTCAAC	-0.143
ACTGGTCA	-0.0101
GATTATAA	0.185
AGCGGTAC	-0.0127
AAAGGATA	0.161
ATTGAGAG	0.0205
ACGCGACT	-0.126
GCGTGGTA	-0.03
ACGAGGAA	-0.0604
ATCACCTC	0.235
GTAGGGGA	-0.345
ATGCCAAT	0.0384
AGCGTCCC	-0.149
GAATAAAC	0.17
CATCTTAG	0.0998
GTTTACCA	0.0654
ATCGATAG	0.0406

Sequence	PBM E-score
ACTCCTGC	-0.0647
AAGCAGAG	0.0385
ATCTCGGG	-0.048
GCAGACCA	-0.2
ACGCGACA	0.124
GCACTTTA	0.0376
AAGGCCTT	-0.24
CGACTACC	-0.363
ATGCGACC	0.0984
GCATCCAA	-0.112
CTTGTTAC	0.0412
ATGGTTAA	0.0285
CATTCGGG	-0.0944
AGCAAGTG	-0.161
ACTAGCTC	-0.0558
CCGTCTCA	0.0207
GCGCGTCA	0.381
AATTTATA	0.263
CATGAAGG	0.0654
ATTGGAGG	-0.09
CCGTCGCA	-0.0328
CAATACGG	0.011
